This passage reports activation results from PubChem BioAssay AID1346428 (National Center for Advancing Translational Sciences (NCATS), 2018).

Each structure is given as a SMILES string. Values joined by “and” are separate entries in the source; they are usually repeats but may differ in a detail not shown here. Identical values can stand only once. About 1,200 (2.5%) of roughly 48,000 compounds were called active. Another 2% or so got no clear call; they are omitted.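 The calls were made as follows: active = activation of at least 60% and not above a set upper limit (about 1 call in 100 departs from these limits); inconclusive = activation of 40% to 60%, or above that upper limit; inactive = activation under 40%.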 The list shows a part of the results.

The target in this test is Probable G-protein coupled receptor 32 (Homo sapiens) (UniProt O75388). In words: qHTS for Agonists of Human Resolvin D1 Receptor DRV1. The note with it: CHO-K1 GPR32 beta-arrestin PathHunter luminescence, 90 min; at 76.9 µM; active compounds read high; zero percent set by DMSO-only wells. In outline: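 Beta-arrestin recruitment read-out: luminescence from complemented beta-Gal in CHO-K1 GPR32 PathHunter cells, measured 1 h after detection reagent at ambient temperature following 90 min compound exposure at 37 °C; DMSO served as basal (EC0) control.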
UniProt O75388, sequence (O75388 whole entry, looked up): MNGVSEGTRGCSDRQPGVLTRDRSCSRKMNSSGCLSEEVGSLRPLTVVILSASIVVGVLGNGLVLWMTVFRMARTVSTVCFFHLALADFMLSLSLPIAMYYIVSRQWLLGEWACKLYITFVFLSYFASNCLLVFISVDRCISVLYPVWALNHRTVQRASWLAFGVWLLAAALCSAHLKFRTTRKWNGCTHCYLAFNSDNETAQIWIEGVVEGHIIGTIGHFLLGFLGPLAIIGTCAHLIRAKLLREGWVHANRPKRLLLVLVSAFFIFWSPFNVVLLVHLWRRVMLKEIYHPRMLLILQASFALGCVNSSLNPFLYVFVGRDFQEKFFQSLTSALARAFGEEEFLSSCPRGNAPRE
A general note: Quantitative high-throughput screening tests each substance at several concentrations.
As to `O=S(=O)(Nc1nc2n(n1)C(c1ccc(F)cc1)C=C(c1ccccc1)N2)c1ccccc1` (configuration not stated), the activation is active: 96%.

For the compound `Cc1cc(NC(=O)CCS(=O)(=O)c2cc3c4c(c2)CCN4C(=O)CC3)ccc1Br`, the activation was inactive: -38.4%.

`CC(C)(C)c1ccc(C(=O)NCC(c2cccs2)S(=O)(=O)c2ccccc2)cc1` (configuration not stated): the activation is inactive: -6.49%.

With `CCc1ccc(CNC(=O)c2ccc(NC(=O)N3CC(C)Sc4ccccc43)cc2)cc1` (configuration not stated), the activation was inactive: -27.4%.

For `Cc1cc(C)c2c(=O)cc(C(=O)Nc3ccccc3C(F)(F)F)oc2c1`, the activation is inactive: -5.67%.

Take `CC(=O)c1ccc(N2CCN(c3ccc(NC(=O)c4ccc(F)cc4)cc3C(=O)O)CC2)cc1`: the activation is inactive: 8.74%.

On to `O=C(Cn1c(SCc2cccc(F)c2)nc2cccnc21)Nc1ccc(F)c(Cl)c1`, for which the activation is inactive: 0.465%.

With `CC(=O)c1ccc(NC(=O)CCc2c(C)nc3c(c(C)nn3-c3ccc(C)cc3)c2C)cc1`, the activation was inactive: -6.04%.

Take `COc1ccccc1NC(c1ccc(Cl)cc1)c1nnc(-c2cccc(F)c2)o1` (configuration not stated): the activation was inactive: -31.6%.

On to `Cc1nn2c(=O)cc(CN(C)c3ccccc3)nc2s1`, for which the activation was inactive: -7.97%.

With `CCOc1ccc(-c2nonc2NC(=O)c2oc3ccc(F)cc3c2C)cc1`, the activation is inactive: 22.8%.

Consider `CC(C)(C)c1ccc(Cn2c(Cc3ccccc3)nc3ccccc32)cc1`, for which the activation is inactive: -42.9%.

`O=C(COc1ccccc1Cl)Nc1cc(-c2ccccc2F)nn1-c1ccccc1`: the activation was inactive: 10.3%.

In the case of `Cc1cc(C)cc(NC(=O)CN(c2cc(C(F)(F)F)ccc2Cl)S(=O)(=O)c2ccccc2)c1`, the activation is inactive: 10.6%.

Take `COc1ccc(C2c3c(oc4ccccc4c3=O)C(=O)N2Cc2ccc3c(c2)OCO3)cc1` (configuration not stated): the activation is inactive: -2.94%.

With `COC(=O)c1ccccc1NC(=O)C1=CC(c2ccc(C)cc2)=NS(=O)(=O)N1C`, the activation is inactive: -8.42%.

With `O=C(CCS(=O)(=O)c1nc(-c2cccs2)cc(C(F)(F)F)n1)Nc1ccc(OC(F)(F)F)cc1`, the activation is inactive: -44.2%.

As for `COc1ccc(OC)c(NC(=O)c2cc3c(n(-c4ccc(Cl)cc4)c2=O)CC(C)(C)CC3=O)c1`, the activation was inactive: 2.57%.

`CCN(CC)CCSC(=O)C(c1ccccc1)c1ccccc1`: the activation was inactive: -31.1%.

Take `COc1cccc(-c2nn(C)c3sc(C(=O)NCc4cc(OC)ccc4OC)cc23)c1`: the activation is inactive: -11.1%.

For the compound `O=C(CN1CCN(Cc2ccc(F)cc2)C1=O)NCc1ccccc1Cl`, the activation is inactive: 10.1%.

Take `Cc1cccc(C(=O)Nc2sc3c(c2C(=O)N2CCCCC2)CCC(C)C3)c1` (configuration not stated): the activation was inactive: -15.2%.

`CC(=O)N1CCOc2cc(S(=O)(=O)NC(C)c3ccccc3)c(Cl)cc21` (configuration not stated): the activation is inactive: 16.7%.

In the case of `O=C(CCc1cn(Cc2ccc(F)cc2)c2ccccc12)NCCc1ccc(Cl)cc1`, the activation was inactive: -27.1%.

As for `Cc1oc2ccc(O)c(CN(C)Cc3ccccc3)c2c1C(=O)Nc1ccccc1`, the activation was inactive: -11.9%.

Regarding `CCN(CC)CC#CCOC(=O)C(O)(c1ccccc1)C1CCCCC1` (configuration not stated), the activation is inactive: -14.8%.

As to `CCN(CC)CCNC(=O)c1c(C)oc2ncn(C)c(=O)c12`, the activation is inactive: -9.08%.

`CCN(c1ccccc1)c1nnc(NC(=O)Nc2ccc(Br)cc2)s1`: the activation is inactive: -2.26%.

Turning to `Cn1cnc(S(=O)(=O)N2CCC(C(=O)NCc3ccccc3Cl)CC2)c1`, the activation was inactive: 1.3%.

Consider `Cc1ccc(NC(=O)Nc2nnc(N3CCCC3)s2)cc1`, for which the activation is inactive: 4.35%.

For `CCOC(=O)c1c(NC(=O)/C=C/c2ccc(C(C)C)cc2)sc2c1CCC2`, the activation is inactive: 35.6%.

Take `Cc1ccc(C(=O)CC2(O)C(=O)N(Cc3ccccc3F)c3ccccc32)cc1` (configuration not stated): the activation was inactive: -13.3%.

With `COc1cccc(NC(=O)CSc2nc3ccc(NC(=O)c4cccs4)cc3s2)c1`, the activation was active: 95%.

As to `Cc1ncc([N+](=O)[O-])n1CCO`, the activation is inactive: -3.92%.

Turning to `CCc1ccc(OC(C)c2nc(-c3ccc(-n4cccc4)cc3)no2)cc1` (configuration not stated), the activation was inactive: -9.26%.

Consider `COC(=O)Nc1nc2ccc(C(=O)C3CC3)cc2[nH]1`, for which the activation is inactive: 10.6%.

On to `CNS(=O)(=O)c1cn(CC(=O)N2CCN(c3ccccc3F)CC2)cc1S(=O)(=O)NC`, for which the activation is inactive: -15.2%.

`C[C@@]12C(=O)OC(=O)[C@]1(C)C1CCC2O1`: the activation was inactive: -6.68%.

Turning to `CCOc1ccc(CCNc2ncnc3onc(-c4ccc(Cl)cc4)c23)cc1OCC`, the activation is inactive: -5.44%.

Take `COCc1nc2cccnc2n1C1CCN(S(=O)(=O)N(C)C)CC1`: the activation was inactive: -7.84%.

On to `O=S(=O)(NCc1csc(-c2ccccc2)n1)c1cccc(F)c1`, for which the activation was inactive: -15.6%.

Turning to `OC(CCN1CCCCC1)(c1ccccc1)C1CC2C=CC1C2` (configuration not stated), the activation is inactive: 27.6% and inactive: -3.4%.

With `COc1ccc(NC(=O)C(c2ccc(C)cc2)N(C)C(=O)/C=C\c2ccc3c(c2)OCO3)cc1` (configuration not stated), the activation is inactive: -25.8%.

With `COc1cccc(C2=C(C(C)=O)Sc3nncn3N2C(C)=O)c1`, the activation was inactive: -58.3%.

Regarding `CCOC(=O)c1ccc(NC(=O)CCc2c(C)nc3c(c(C)nn3-c3ccccc3)c2C)cc1`, the activation was inactive: -1.45%.

For the compound `CC[C@@H](C)[C@H]1O[C@]2(CC[C@H]1C)C[C@@H]1C[C@@H](CC=C(C)[C@@H](O[C@H]3C[C@H](OC)[C@@H](O[C@H]4C[C@H](OC)[C@@H](O)[C@H](C)O4)[C@H](C)O3)[C@@H](C)C=CC=C3CO[C@@H]4[C@H](O)C(C)=C[C@@H](C(=O)O1)[C@]34O)O2`, the activation is inactive: -19%.

`Cc1ccc(CN(Cc2ccco2)C(=O)COc2ccccc2C)cc1`: the activation was inactive: 5.98%.

Regarding `CC(C)C(NS(=O)(=O)c1ccc2c(c1)oc(=O)n2C)C(=O)N1CCN(c2cccc(Cl)c2)CC1` (configuration not stated), the activation was inactive: -1.7%.

For `CCN(CC)C(=O)c1ccc2c(c1)N(Cc1c(F)cccc1Cl)C(=O)c1ccccc1S2`, the activation is inactive: -8.87%.

Take `COc1ccc(NC(=O)C(Cc2c[nH]c3ccccc23)NC(=O)OC(C)(C)C)cc1` (configuration not stated): the activation was inactive: -5.78%.

With `COC(=O)Cn1c(=NC(=O)c2ccc3c(c2)OCCO3)sc2ccccc21`, the activation was inactive: -14.1%.

With `COc1ccc(N2CC(NC(=O)c3cccs3)CC2=O)cc1` (configuration not stated), the activation was inactive: -4.62%.

In the case of `O=C(CSc1nc(=O)[nH]c2c1CCCC2)Nc1ccc(Cl)c(Cl)c1`, the activation is inactive: -7.36%.

`CCN(CC)S(=O)(=O)c1ccc(NC(=O)c2cc3ccc4cccnc4c3[nH]2)cc1`: the activation was inactive: -4.52%.

Take `Cc1ccc(-n2nc(C(=O)Nc3ccc(F)cc3Cl)c(=O)n(C)c2=O)cc1`: the activation is inactive: -3.02%.

For `CN(Cc1ccccc1)c1nnc(NC(=O)Nc2cccc(Br)c2)s1`, the activation is inactive: -5.69%.

Take `Cc1cc(N2CCN(C)CC2)nc2ccc(NC(=O)c3ccc(C(C)(C)C)cc3)cc12`: the activation was inactive: 15.8%.

With `Cc1ccc(C(=O)n2nc(C)c(S(=O)(=O)N3CCCCCC3)c2C)cc1C`, the activation is inactive: -1.32%.

For `COc1ccc(Cn2c(=O)n(-c3ccc(F)c(Cl)c3)c(=O)c3c2c2cc(OC)ccc2n3C)cc1`, the activation was inactive: -7.93%.

As for `COc1ccc(CNC(=O)c2nc(SCc3ccc(C)cc3)ncc2Cl)cc1`, the activation is inactive: -26.2%.

On to `CCc1nnc(NC(=O)CSc2nccn2Cc2ccc(C)cc2)s1`, for which the activation is inactive: -11.8%.

Take `COc1ccccc1NC(=O)CSc1nc(O)c(C/C=C/c2ccccc2)c(=O)[nH]1`: the activation is inactive: -9.17%.

With `CCOc1cccc2sc(N3CCN(C(=O)c4ccc5c(c4)CCCC5)CC3)nc12`, the activation is inactive: -30.2%.

For `CCOC(=O)c1c(S(=O)(=O)N2CCC(C(=O)NCc3cccc(C)c3)CC2)c(C)n(C)c1C`, the activation was inactive: 7.36%.

For `CC1CCCCN1c1c(S(=O)(=O)c2ccc(Cl)cc2)cnc2ccccc12` (configuration not stated), the activation is inactive: -36.2%.

As to `Cc1ccc(CCNC(=O)c2sc3ncccc3c2-n2c(C)ccc2C)cc1`, the activation was inactive: 0.895%.

Regarding `COc1cccc(C2=CC(c3ccccc3F)n3ncc(C(=O)Nc4ccc(C)cc4)c3N2)c1` (configuration not stated), the activation was inactive: -1.61%.

In the case of `CCC(=O)Nc1ccc(CC)cc1-c1nc2ccccc2n(CC(=O)Nc2cccc(OC)c2)c1=O`, the activation was inactive: -14.5%.

In the case of `Cc1cc(C)cc(-n2ccnc(NCCc3ccccc3)c2=O)c1`, the activation is inactive: -13.2%.

For the compound `COc1ccc(-c2nc(CS(=O)CC(=O)NCCc3ccccc3)c(C)o2)cc1OC` (configuration not stated), the activation is inactive: -11%.

In the case of `CCOC(=O)c1cc2c(=O)n3ccccc3nc2n(CC(C)C)c1=NC(=O)COc1ccc(Cl)cc1`, the activation was inactive: -13.7%.

Consider `COc1ccc(C(=O)Nc2ccc3nc4c(c(Nc5ccc(OC)c(OC)c5)c3c2)CCCC4)c(OC)c1`, for which the activation was inactive: 35%.

For `Cc1ccc(C)c(N2CCN(C(=O)c3cnn(C(C)(C)C)c3C3CCN(C(=O)OC(C)(C)C)CC3)CC2)c1`, the activation is inactive: -9.05%.

For the compound `Cc1ccc2oc(C(=O)Nc3ccc(S(=O)(=O)N4CCCC(C)C4)cc3)cc(=O)c2c1` (configuration not stated), the activation is inactive: 10.6%.

Consider `CCn1cc2nc(SCc3cccc(C(F)(F)F)c3)n(Cc3ccc(Cl)cc3)c(=O)c2n1`, for which the activation is inactive: -11.2%.

Consider `COc1ccc(OC)c(NC(=O)CCCc2nnc3n(C(C)C)c(=O)c4sccc4n23)c1`, for which the activation is inactive: -11.7%.

On to `COc1ccc(C)cc1NC(=O)N1CCC(CN2CCOCC2)CC1`, for which the activation is inactive: -13.4%.

On to `Cc1ccc(N(CC(=O)N2CCN(c3cccc(Cl)c3)CC2)S(=O)(=O)c2c(C)noc2C)cc1`, for which the activation was inactive: -12.7%.

For the compound `CCc1ccc(-n2c(=O)c3ccccc3n(CC(=O)NCCc3ccc(OC)c(OC)c3)c2=O)cc1`, the activation is inactive: -7.86%.

In the case of `COc1ccc(Cl)cc1NC(=O)NCCn1c(=O)oc2ccc(C)cc21`, the activation was inactive: -54.6%.

As for `Cc1ccccc1NC(=O)c1c(NC(=O)c2ccccc2)sc2c1CCC2`, the activation was inactive: -0.0566%.

On to `Cn1cc(S(C)=O)c(=O)c2ccc(F)cc21` (configuration not stated), for which the activation is inactive: -12.3%.
